# From US20230250147A1, “GLP-1R AGONISTIC PEPTIDES WITH REDUCED ACTIVITY” (SANOFI, priority 2020, published 2023)
# T1: Mouse GLP-1R (Mus musculus, UniProt O35659)
# T1 construct: expressed in transfected cells; host or cells: HEK-293
# T1 sequence (O35659 22-463): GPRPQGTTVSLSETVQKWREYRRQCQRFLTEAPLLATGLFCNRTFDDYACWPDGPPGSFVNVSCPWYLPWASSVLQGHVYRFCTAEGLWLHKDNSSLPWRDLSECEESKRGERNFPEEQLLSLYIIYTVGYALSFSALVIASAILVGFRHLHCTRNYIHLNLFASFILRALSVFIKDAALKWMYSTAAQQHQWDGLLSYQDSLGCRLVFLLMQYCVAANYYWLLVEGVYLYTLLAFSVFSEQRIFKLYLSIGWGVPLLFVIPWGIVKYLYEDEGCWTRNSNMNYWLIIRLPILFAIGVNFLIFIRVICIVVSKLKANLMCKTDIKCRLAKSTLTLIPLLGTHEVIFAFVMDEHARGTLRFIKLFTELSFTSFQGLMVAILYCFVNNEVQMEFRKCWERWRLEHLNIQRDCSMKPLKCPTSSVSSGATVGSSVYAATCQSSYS
# What was measured:
# Assay type in all cases: cell-based
# Mouse GLP-1R = target: T1, Mouse GLP-1R; assay: HTRF cAMP assay in HEK-293 cells, mouse GLP-1R
# Procedure: (§1) Recombinant HEK-293 cells were grown in T175 culture flasks placed at 37° C. to near confluence in medium (DMEM with 10% FBS) and collected in 2 mL vials in cell culture medium containing 10% DMSO in concentrations of 1-5×10^7 cells/mL. Each vial contained 1.8 mL cell suspension. The vials were slowly frozen to −80° C. in an isopropanol chamber, and then transferred to liquid nitrogen for long term storage.
# (§2) Prior to their use, frozen cells were thawed quickly at 37° C., washed with 20 mL cell buffer (1×HBSS; 20 mM HEPES, 0.1% BSA) and centrifuged for 5 minutes at 900 rpm. Cells were resuspended in assay buffer (cell buffer plus 2 mM IBMX) and adjusted to a cell density of 1×10^6 cells/mL. For measurement, 5 μL cell suspension (final 5×10^3 cells/well) and 5 μL of test compound were added to a well of a 384-well plate, followed by incubation for 30 minutes at room temperature. […] The cAMP content of cells was determined using a kit from Cisbio Corp. (cat. no. 62AM4PEC) based on Homogenous Time Resolved Fluorescence (HTRF).
# Monkey GLP-1R = target: T2, Monkey GLP-1R (Macaca fascicularis, UniProt F8V479); assay: HTRF cAMP assay in HEK-293 cells, monkey GLP-1R
# T2 construct: expressed in transfected cells; host or cells: HEK-293
# Procedure: as §1, §2
# Human GLP-1R = target: T3, Human GLP-1R (Homo sapiens, UniProt P43220); assay: HTRF cAMP assay in HEK-293 cells, human GLP-1R
# T3 construct: expressed in transfected cells; host or cells: HEK-293
# T3 sequence (P43220 24-463): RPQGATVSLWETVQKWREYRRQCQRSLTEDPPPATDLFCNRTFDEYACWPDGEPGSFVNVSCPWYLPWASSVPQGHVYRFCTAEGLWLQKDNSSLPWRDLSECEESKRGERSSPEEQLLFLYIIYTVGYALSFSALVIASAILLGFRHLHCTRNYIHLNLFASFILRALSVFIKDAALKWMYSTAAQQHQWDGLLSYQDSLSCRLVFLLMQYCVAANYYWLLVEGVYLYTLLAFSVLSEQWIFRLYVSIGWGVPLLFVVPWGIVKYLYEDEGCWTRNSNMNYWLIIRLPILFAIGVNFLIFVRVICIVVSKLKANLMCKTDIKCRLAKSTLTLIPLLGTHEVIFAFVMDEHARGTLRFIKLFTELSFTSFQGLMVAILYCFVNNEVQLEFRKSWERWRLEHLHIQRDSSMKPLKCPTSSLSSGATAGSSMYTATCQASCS
# T2 sequence (F8V479 24-463): as the sequence (P43220 24-463) above, with S112N, F120S, S202G, L205V, L237F, W241R, I249V counted along it
molecule,measurement,setting,value
"164 (protein, Fusion Protein) HSEGTFTSDKSKQLAKRLVRLFIEWLIKGGHSSGKPPPKGGGGGGGSGGGGSGGGGSA[… human IgG4 Fc with changes …]GGGSGSAHPIPDSSPLLQFGGQVRQRYLYTDDACQTEAHLEIREDGTVGGAADQSPESLLQLKALKPGVIQILGVKTSRFLCQRPDGALYGSLHFDPEACSFRELLLEDGYNVYQSEAHGLPLHLPGCKSPHRDPAPRGPARFLPLPGLPPAPPEPPGILAPQPPDVGSSDPLSMVGSQGRSPSYAS",EC50,Mouse GLP-1R,0.088 nM
same,EC50,Monkey GLP-1R,0.141 nM
same,EC50,Human GLP-1R,0.103 nM
"187 (protein, Fusion Protein) HGEGTFTSDLSKQLAERLVRLFIEWLIKGGHSSGKPPPKGGGGGGGSGGGGSGGGGSA[… human IgG4 Fc with changes …]GGGSGSAHPIPDSSPLLQFGGQVRQRYLYTDDACQTEAHLEIREDGTVGGAADQSPESLLQLKALKPGVIQILGVKTSRFLCQRPDGALYGSLHFDPEACSFRELLLEDGYNVYQSEAHGLPLHLPGCKSPHRDPAPRGPARFLPLPGLPPAPPEPPGILAPQPPDVGSSDPLSMVGSQGRSPSYAS",EC50,Mouse GLP-1R,0.0675 nM
same,EC50,Monkey GLP-1R,0.0632 nM
same,EC50,Human GLP-1R,0.0674 nM
"188 (protein, Fusion Protein) HGEGTFTSDLSIQLAKRLAQLFIEWLIKGGHSSGKPPPKGGGGGGGSGGGGSGGGGSA[… human IgG4 Fc with changes …]GGGSGSAHPIPDSSPLLQFGGQVRQRYLYTDDACQTEAHLEIREDGTVGGAADQSPESLLQLKALKPGVIQILGVKTSRFLCQRPDGALYGSLHFDPEACSFRELLLEDGYNVYQSEAHGLPLHLPGCKSPHRDPAPRGPARFLPLPGLPPAPPEPPGILAPQPPDVGSSDPLSMVGSQGRSPSYAS",EC50,Mouse GLP-1R,0.071 nM
same,EC50,Monkey GLP-1R,0.0637 nM
same,EC50,Human GLP-1R,0.0597 nM
"190 (protein, Fusion Protein) HGEGTFTSDKSKQLEKELVRLFYEWLKAGGHSKQKPPPKGGGGGGGSGGGGSGGGGSA[… human IgG4 Fc with changes …]GGGSGSAHPIPDSSPLLQFGGQVRQRYLYTDDACQTEAHLEIREDGTVGGAADQSPESLLQLKALKPGVIQILGVKTSRFLCQRPDGALYGSLHFDPEACSFRELLLEDGYNVYQSEAHGLPLHLPGCKSPHRDPAPRGPARFLPLPGLPPAPPEPPGILAPQPPDVGSSDPLSMVGSQGRSPSYAS",EC50,Mouse GLP-1R,0.479 nM
same,EC50,Monkey GLP-1R,0.239 nM
same,EC50,Human GLP-1R,0.152 nM
"192 (protein, Fusion Protein) HGEGTFTSDLSKQLEERLARLFYEWLIAGGHSSQKPPPKGGGGGGGSGGGGSGGGGSA[… human IgG4 Fc with changes …]GGGSGSAHPIPDSSPLLQFGGQVRQRYLYTDDACQTEAHLEIREDGTVGGAADQSPESLLQLKALKPGVIQILGVKTSRFLCQRPDGALYGSLHFDPEACSFRELLLEDGYNVYQSEAHGLPLHLPGCKSPHRDPAPRGPARFLPLPGLPPAPPEPPGILAPQPPDVGSSDPLSMVGSQGRSPSYAS",EC50,Mouse GLP-1R,0.098 nM
same,EC50,Monkey GLP-1R,0.149 nM
same,EC50,Human GLP-1R,0.102 nM
"194 (protein, Fusion Protein) HGEGTFTSDLSKQLEKELVRLFYEWLINGGHKSGKPPPKGGGGGGGSGGGGSGGGGSA[… human IgG4 Fc with changes …]GGGSGSAHPIPDSSPLLQFGGQVRQRYLYTDDACQTEAHLEIREDGTVGGAADQSPESLLQLKALKPGVIQILGVKTSRFLCQRPDGALYGSLHFDPEACSFRELLLEDGYNVYQSEAHGLPLHLPGCKSPHRDPAPRGPARFLPLPGLPPAPPEPPGILAPQPPDVGSSDPLSMVGSQGRSPSYAS",EC50,Mouse GLP-1R,0.129 nM
same,EC50,Monkey GLP-1R,0.14 nM
"223 (protein, Fusion Protein) GHGEGTFTSDKSKQLEEEAVRLFIEWLKAGGAEAAAKEAAAKEAAAKEAAKALEAEAAKEAAKEAAKEAAKAGGG[… human IgG1 Fc with changes …]GGGSGSAHPIPDSSPLLQFGGQVRQRYLYTDDACQTEAHLEIREDGTVGGAADQSPESLLQLKALKPGVIQILGVKTSRFLCQRPDGALYGSLHFDPEACSFRELLLEDGYNVYQSEAHGLPLHLPGCKSPHRDPAPRGPARFLPLPGLPPAPPEPPGILAPQPPDVGSSDPLSMVYPSQGRSPSYAS",EC50,Mouse GLP-1R,0.0795 nM
same,EC50,Human GLP-1R,0.0808 nM
"224 (protein, Fusion Protein) GHGEGTFTSDKSKQLEEEAVRLFIEWLKAGGPKKIRYS[… human IgG1 Fc with changes …]GGGSGSAHPIPDSSPLLQFGGQVRQRYLYTDDACQTEAHLEIREDGTVGGAADQSPESLLQLKALKPGVIQILGVKTSRFLCQRPDGALYGSLHFDPEACSFRELLLEDGYNVYQSEAHGLPLHLPGCKSPHRDPAPRGPARFLPLPGLPPAPPEPPGILAPQPPDVGSSDPLSMVYPSQGRSPSYAS",EC50,Mouse GLP-1R,0.251 nM
same,EC50,Human GLP-1R,0.227 nM
"225 (protein, Fusion Protein) GHGEGTFTSDKSKQLEEEAVRLFIEWLKAGGPKKIRYSPAPAPAPAPAPAGGG[… human IgG1 Fc with changes …]GGGSGSAHPIPDSSPLLQFGGQVRQRYLYTDDACQTEAHLEIREDGTVGGAADQSPESLLQLKALKPGVIQILGVKTSRFLCQRPDGALYGSLHFDPEACSFRELLLEDGYNVYQSEAHGLPLHLPGCKSPHRDPAPRGPARFLPLPGLPPAPPEPPGILAPQPPDVGSSDPLSMVYPSQGRSPSYAS",EC50,Mouse GLP-1R,0.0616 nM
same,EC50,Human GLP-1R,0.128 nM
"226 (protein, Fusion Protein) GHGEGTFTSDKSKQLEEEAVRLFIEWLKAGGPKKIRYSPAPAPAEAAAKEAAAKPAPAPA[… human IgG1 Fc with changes …]GGGSGSAHPIPDSSPLLQFGGQVRQRYLYTDDACQTEAHLEIREDGTVGGAADQSPESLLQLKALKPGVIQILGVKTSRFLCQRPDGALYGSLHFDPEACSFRELLLEDGYNVYQSEAHGLPLHLPGCKSPHRDPAPRGPARFLPLPGLPPAPPEPPGILAPQPPDVGSSDPLSMVYPSQGRSPSYAS",EC50,Mouse GLP-1R,0.0435 nM
same,EC50,Human GLP-1R,0.0641 nM
"227 (protein, Fusion Protein) GHGEGTFTSDKSKQLEEEAVRLFIEWLKAGGPKKIRYSAEAAAKEAAAKEAAAKGGG[… human IgG1 Fc with changes …]GGGSGSAHPIPDSSPLLQFGGQVRQRYLYTDDACQTEAHLEIREDGTVGGAADQSPESLLQLKALKPGVIQILGVKTSRFLCQRPDGALYGSLHFDPEACSFRELLLEDGYNVYQSEAHGLPLHLPGCKSPHRDPAPRGPARFLPLPGLPPAPPEPPGILAPQPPDVGSSDPLSMVYPSQGRSPSYAS",EC50,Mouse GLP-1R,0.0408 nM
same,EC50,Human GLP-1R,0.0614 nM
"228 (protein, Fusion Protein) GHGEGTFTSDKSKQLEEEAVRLFIEWLKAGGPKKIRYSAEAAAKEAAAKEAAAKEAAKALEAEAAKEAAKEAAKEAAKAGGG[… human IgG1 Fc with changes …]GGGSGSAHPIPDSSPLLQFGGQVRQRYLYTDDACQTEAHLEIREDGTVGGAADQSPESLLQLKALKPGVIQILGVKTSRFLCQRPDGALYGSLHFDPEACSFRELLLEDGYNVYQSEAHGLPLHLPGCKSPHRDPAPRGPARFLPLPGLPPAPPEPPGILAPQPPDVGSSDPLSMVYPSQGRSPSYAS",EC50,Mouse GLP-1R,0.0301 nM
same,EC50,Human GLP-1R,0.0492 nM
